Drawing on patent publication US20250026846A1 (JCR PHARMACEUTICALS, published 2025), this text covers Kd, koff and kon for five molecules.

The target in test [1] is T1, recombinant human TfR (r human TfR: Sino Biological Inc.), hTfR extracellular region with a histidine tag at … (human, UniProt P02786).
T1 construct: Bought from Sino Biological; also called r human TfR-ECD (Histag); recombinant hTfR; not shown: histidine tag at the N-terminus
Description: BLI (Octet RED96), His-tagged TfR ECD on Ni-NTA sensor.

For test [2], the target named is T2, recombinant monkey TfR (r monkey TfR: Sino Biological Inc.), crab-eating monkey TfR extracellular region with … (crab-eating monkey (Macaca fascicularis)).
T2 construct: Bought from Sino Biological; also called r monkey TfR-ECD (Histag); not shown: histidine tag at the N-terminus
T2 chain: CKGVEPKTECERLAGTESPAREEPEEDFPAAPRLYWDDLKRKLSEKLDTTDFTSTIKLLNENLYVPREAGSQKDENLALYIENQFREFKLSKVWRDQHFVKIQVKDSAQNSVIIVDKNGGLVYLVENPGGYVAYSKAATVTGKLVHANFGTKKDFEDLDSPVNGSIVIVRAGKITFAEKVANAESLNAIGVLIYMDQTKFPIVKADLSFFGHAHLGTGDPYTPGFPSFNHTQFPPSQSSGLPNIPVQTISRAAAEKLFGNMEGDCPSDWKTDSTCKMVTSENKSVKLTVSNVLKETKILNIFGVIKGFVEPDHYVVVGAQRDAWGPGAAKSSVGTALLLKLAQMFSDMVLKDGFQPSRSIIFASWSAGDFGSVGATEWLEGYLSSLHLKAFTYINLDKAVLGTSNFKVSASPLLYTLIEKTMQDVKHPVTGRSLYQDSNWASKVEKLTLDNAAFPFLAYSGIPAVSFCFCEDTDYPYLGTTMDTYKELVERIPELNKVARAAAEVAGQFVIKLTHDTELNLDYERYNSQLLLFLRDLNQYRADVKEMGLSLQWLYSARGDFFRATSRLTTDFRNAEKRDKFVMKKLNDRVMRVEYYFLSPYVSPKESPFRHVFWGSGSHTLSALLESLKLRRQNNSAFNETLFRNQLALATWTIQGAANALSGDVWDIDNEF
Described as above.

Where only a bound is given, the exact number is not on record here.

B1: IgG4 IDUA (other)
light: DIVMTQTPLSLSVTPGQPASISCRSSQSLVHSNGNTYLHWYLQKPGQSPQLLIYKVSNRFSGVPDRFSGSGSGTDFTLKISRVEAEDVGVYYCSQSTHVPWTFGQGTKVEIKRTVAAPSVFIFPPSDEQLKSGTASVVCLLNNFYPREAKVQWKVDNALQSGNSQESVTEQDSKDSTYSLSSTLTLSKADYEKHKVYACEVTHQGLSSPVTKSFNRGEC
heavy: EVQLVQSGAEVKKPGESLKISCKGSGYSFMNYWLGWVRQMPGKGLEWMGDIYPGGDYPTYSEKFKVQVTISADKSISTAYLQLSSLKASDTAMYYCARSGNYDEVAYWGQGTLVTVSSASTKGPSVFPLAPCSRSTSESTAALGCLVKDYFPEPVTVSWNSGALTSGVHTFPAVLQSSGLYSLSSVVTVPSSSLGTKTYTCNVDHKPSNTKVDKRV[sequence of human IgG4 Fc with S228P L445P (EU numbers) omitted]GSAEAPHLVHVDAARALWPLRRFWRSTGFCPPLPHSQADQYVLSWDQQLNLAYVGAVPHRGIKQVRTHWLLELVTTRGSTGRGLSYNFTHLDGYLDLLRENQLLPGFELMGSASGHFTDFEDKQQVFEWKDLVSSLARRYIGRYGLAHVSKWNFETWNEPDHHDFDNVSMTMQGFLNYYDACSEGLRAASPALRLGGPGDSFHTPPRSPLSWGLLRHCHDGTNFFTGEAGVRLDYISLHRKGARSSISILEQEKVVAQQIRQLFPKFADTPIYNDEADPLVGWSLPQPWRADVTYAAMVVKVIAQHQNLLLANTTSAFPYALLSNDNAFLSYHPHPFAQRTLTARFQVNNTRPPHVQLLRKPVLTAMGLLALLDEEQLWAEVSQAGTVLDSNHTVGVLASAHRPQGPADAWRAAVLIYASDDTRAHPNRSVAVTLRLRGVPPGPGLVYVTRYLDNGLCSPDGEWRRLGRPVFPTAEQFRRMRAAEDPVAAAPRPLPAGGRLTLRPALRLPSLLLVHVCARPEKPPGQVTRLRALPLTQGQLVLVWSDEHVGSKCLWTYEIQFSQDGKAYTPVSRKPSTFNLFVFSPDTGAVSGSYRVRALDYWARPGPFSDPVPYLEVPVPRGPPSPGNP
notes: also called IgG4 HC-IDUA
Regarding B1, in test [1], the equilibrium dissociation constant (Kd) is less than 1 pM, the off-rate (koff) is less than 1e-07 s⁻¹ and the on-rate (kon) stood at 980000 M⁻¹ s⁻¹. In addition, in test [2], the equilibrium dissociation constant (Kd) was less than 1 pM, the dissociation rate constant (koff) was less than 1e-07 s⁻¹ and the kon was 561000 M⁻¹ s⁻¹.

B2: IgG4 GS20-IDUA (other)
light: B1 light
heavy: EVQLVQSGAEVKKPGESLKISCKGSGYSFMNYWLGWVRQMPGKGLEWMGDIYPGGDYPTYSEKFKVQVTISADKSISTAYLQLSSLKASDTAMYYCARSGNYDEVAYWGQGTLVTVSSASTKGPSVFPLAPCSRSTSESTAALGCLVKDYFPEPVTVSWNSGALTSGVHTFPAVLQSSGLYSLSSVVTVPSSSLGTKTYTCNVDHKPSNTKVDKRV[sequence of human IgG4 Fc with S228P L445P (EU numbers) omitted]GGGGSGGGGSGGGGSGGGGSGGGGSGGGGSGGGGSGGGGSGGGGSGGGGSGGGGSGGGGSGGGGSGGGGSGGGGSGGGGSGGGGSGGGGSGGGGSGGGGSAEAPHLVHVDAARALWPLRRFWRSTGFCPPLPHSQADQYVLSWDQQLNLAYVGAVPHRGIKQVRTHWLLELVTTRGSTGRGLSYNFTHLDGYLDLLRENQLLPGFELMGSASGHFTDFEDKQQVFEWKDLVSSLARRYIGRYGLAHVSKWNFETWNEPDHHDFDNVSMTMQGFLNYYDACSEGLRAASPALRLGGPGDSFHTPPRSPLSWGLLRHCHDGTNFFTGEAGVRLDYISLHRKGARSSISILEQEKVVAQQIRQLFPKFADTPIYNDEADPLVGWSLPQPWRADVTYAAMVVKVIAQHQNLLLANTTSAFPYALLSNDNAFLSYHPHPFAQRTLTARFQVNNTRPPHVQLLRKPVLTAMGLLALLDEEQLWAEVSQAGTVLDSNHTVGVLASAHRPQGPADAWRAAVLIYASDDTRAHPNRSVAVTLRLRGVPPGPGLVYVTRYLDNGLCSPDGEWRRLGRPVFPTAEQFRRMRAAEDPVAAAPRPLPAGGRLTLRPALRLPSLLLVHVCARPEKPPGQVTRLRALPLTQGQLVLVWSDEHVGSKCLWTYEIQFSQDGKAYTPVSRKPSTFNLFVFSPDTGAVSGSYRVRALDYWARPGPFSDPVPYLEVPVPRGPPSPGNP
notes: also called IgG4 HC-GS20-IDUA
With B2, in test [1], the Kd was less than 1 pM, the dissociation rate constant (koff) was less than 1e-07 s⁻¹ and the kon came out at 924000 M⁻¹ s⁻¹. Moreover, in test [2], the equilibrium dissociation constant (Kd) is less than 1 pM, the koff was less than 1e-07 s⁻¹ and the on-rate constant (kon) came to 481000 M⁻¹ s⁻¹.

B3: IgG4 PPT1 (other)
light: B1 light
heavy: EVQLVQSGAEVKKPGESLKISCKGSGYSFMNYWLGWVRQMPGKGLEWMGDIYPGGDYPTYSEKFKVQVTISADKSISTAYLQLSSLKASDTAMYYCARSGNYDEVAYWGQGTLVTVSSASTKGPSVFPLAPCSRSTSESTAALGCLVKDYFPEPVTVSWNSGALTSGVHTFPAVLQSSGLYSLSSVVTVPSSSLGTKTYTCNVDHKPSNTKVDKRV[sequence of human IgG4 Fc with S228P L445P (EU numbers) omitted]GSDPPAPLPLVIWHGMGDSCCNPLSMGAIKKMVEKKIPGIYVLSLEIGKTLMEDVENSFFLNVNSQVTTVCQALAKDPKLQQGYNAMGFSQGGQFLRAVAQRCPSPPMINLISVGGQHQGVFGLPRCPGESSHICDFIRKTLNAGAYSKVVQERLVQAEYWHDPIKEDVYRNHSIFLADINQERGINESYKKNLMALKKFVMVKFLNDSIVDPVDSEWFGFYRSGQAKETIPLQETSLYTQDRLGLKEMDNAGQLVFLATEGDHLQLSEEWFYAHIIPFLG
notes: Antibody-enzyme fusion: heavy chain (IgG4) of antibody No. 3N, Gly-Ser, then hPPT-1; also called IgG4 HC-PPT1
As to B3, in test [1], the Kd is less than 1 pM, the off-rate constant (koff) is less than 1e-07 s⁻¹ and the kon is 737000 M⁻¹ s⁻¹. Further, in test [2], the Kd was less than 1 pM, the dissociation rate constant (koff) was less than 1e-07 s⁻¹ and the association rate constant (kon) came to 307000 M⁻¹ s⁻¹.

B4: IgG4 GS10-GBA (other)
light: B1 light
heavy: EVQLVQSGAEVKKPGESLKISCKGSGYSFMNYWLGWVRQMPGKGLEWMGDIYPGGDYPTYSEKFKVQVTISADKSISTAYLQLSSLKASDTAMYYCARSGNYDEVAYWGQGTLVTVSSASTKGPSVFPLAPCSRSTSESTAALGCLVKDYFPEPVTVSWNSGALTSGVHTFPAVLQSSGLYSLSSVVTVPSSSLGTKTYTCNVDHKPSNTKVDKRV[sequence of human IgG4 Fc with S228P L445P (EU numbers) omitted]GGGGSGGGGSGGGGSGGGGSGGGGSGGGGSGGGGSGGGGSGGGGSGGGGSARPCIPKSFGYSSVVCVCNATYCDSFDPPTFPALGTFSRYESTRSGRRMELSMGPIQANHTGTGLLLTLQPEQKFQKVKGFGGAMTDAAALNILALSPPAQNLLLKSYFSEEGIGYNIIRVPMASCDFSIRTYTYADTPDDFQLHNFSLPEEDTKLKIPLIHRALQLAQRPVSLLASPWTSPTWLKTNGAVNGKGSLKGQPGDIYHQTWARYFVKFLDAYAEHKLQFWAVTAENEPSAGLLSGYPFQCLGFTPEHQRDFIARDLGPTLANSTHHNVRLLMLDDQRLLLPHWAKVVLTDPEAAKYVHGIAVHWYLDFLAPAKATLGETHRLFPNTMLFASEACVGSKFWEQSVRLGSWDRGMQYSHSIITNLLYHVVGWTDWNLALNPEGGPNWVRNFVDSPIIVDITKDTFYKQPMFYHLGHFSKFIPEGSQRVGLVASQKNDLDAVALMHPDGSAVVVVLNRSSKDVPLTIKDPAVGFLETISPGYSIHTYLWRRQ
notes: also called IgG4 HC-GS10-GBA
For the molecule B4, in test [1], the dissociation constant (Kd) was less than 1 pM, the koff was less than 1e-07 s⁻¹ and the kon came to 957000 M⁻¹ s⁻¹. In test [2], the Kd is less than 1 pM, the koff is less than 1e-07 s⁻¹ and the kon was 449000 M⁻¹ s⁻¹.

B5: IgG4 GS10-ARSA (other)
light: B1 light
heavy: EVQLVQSGAEVKKPGESLKISCKGSGYSFMNYWLGWVRQMPGKGLEWMGDIYPGGDYPTYSEKFKVQVTISADKSISTAYLQLSSLKASDTAMYYCARSGNYDEVAYWGQGTLVTVSSASTKGPSVFPLAPCSRSTSESTAALGCLVKDYFPEPVTVSWNSGALTSGVHTFPAVLQSSGLYSLSSVVTVPSSSLGTKTYTCNVDHKPSNTKVDKRV[sequence of human IgG4 Fc with S228P L445P (EU numbers) omitted]GGGGSGGGGSGGGGSGGGGSGGGGSGGGGSGGGGSGGGGSGGGGSGGGGSRPPNIVLIFADDLGYGDLGCYGHPSSTTPNLDQLAAGGLRFTDFYVPVSLCTPSRAALLTGRLPVRMGMYPGVLVPSSRGGLPLEEVTVAEVLAARGYLTGMAGKWHLGVGPEGAFLPPHQGFHRFLGIPYSHDQGPCQNLTCFPPATPCDGGCDQGLVPIPLLANLSVEAQPPWLPGLEARYMAFAHDLMADAQRQDRPFFLYYASHHTHYPQFSGQSFAERSGRGPFGDSLMELDAAVGTLMTAIGDLGLLEETLVIFTADNGPETMRMSRGGCSGLLRCGKGTTYEGGVREPALAFWPGHIAPGVTHELASSLDLLPTLAALAGAPLPNVTLDGFDLSPLLLGTGKSPRQSLFFYPSYPDEVRGVFAVRTGKYKAHFFTQGSAHSDTTADPACHASSSLTAHEPPLLYDLSKDPGENYNLLGGVAGATPEVLQALKQLQLLKAQLDAAVTFGPSQVARGEDPALQICCHPGCTPRPACCHCPDPHA
notes: also called IgG4 HC-GS10-ARSA
For the molecule B5, in test [1], the equilibrium dissociation constant (Kd) was less than 1 pM, the dissociation rate constant (koff) was less than 1e-07 s⁻¹ and the kon amounted to 460000 M⁻¹ s⁻¹. In addition, in test [2], the equilibrium dissociation constant (Kd) is less than 1 pM, the koff is less than 1e-07 s⁻¹ and the kon was determined as 169000 M⁻¹ s⁻¹.
